Experimental data taken from PubChem BioAssay AID493208 (National Center for Advancing Translational Sciences (NCATS), 2011).
The campaign covered roughly 44,000 compounds. About 340 (0.77%) were called active. Inconclusive results (about 5%) are left out. Calls follow the shape of the dose curve; as a rule, active = well fitted inhibition curve with a large enough effect; inconclusive = small, poorly fitted or top-dose-only effect; inactive = flat fitted curve, though single readings scatter. The list shows a part of the results.

Assay: Acumen qHTS Assay for Inhibitors of the mTORC1 Signaling Pathway in MEF (Tsc2-/-, p53-/-) Cells: Sytravon;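 also: plate controls were DMSO for no effect and rapamycin for full effect; nearly all actives have a fitted effect of over 50% in size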
Settings: phospho-rpS6 immunofluorescence/PI, 24 h; series mostly up to 38.3 µM; activity change, negative = inhibition: at the top concentration
Method in brief: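 Tsc2-/-, p53-/- MEFs (empty-vector stable line) in DMEM + 10% FBS were treated with compounds 24 h at 37 degree Celsius, fixed, and immunostained for phospho-rpS6 (Alexa-488) with propidium iodide counterstain. Laser-scanning cytometry gave % positive cells, normalized against 7.5 nM rapamycin and DMSO.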

Activity change, negative = inhibition, inactive:
O=C(NCc1ccccc1Cl)c1ccc2c(c1)N(Cc1ccccc1)C(=O)CS2 9.76%
CC1CCN(S(=O)(=O)c2ccc3c(c2)c(=O)c(C(=O)NC(C)c2ccccc2)cn3C)CC1 (stereo not given) -1.09%
CN(CC(=O)Nc1ccccc1F)S(=O)(=O)c1ccc2c(c1)c(=O)n(C)c(=O)n2C -13%
COc1ccc(CCC(=O)NCc2nc3cccnc3n2Cc2ccc(F)cc2)cc1 1.66%
Cc1ccc(Cl)cc1N1CCN(C(=O)c2ccc3c(c2)CCN3S(=O)(=O)c2ccccc2)CC1 -4.13%
Cc1ccc(-c2nnc(Nc3cccc(O)c3)c3ccccc23)cc1S(=O)(=O)NCC1CCCO1 (stereo not given) -10.8%
O=C(NCCc1ccccc1)c1ccc2c(c1)N(Cc1ccccc1)C(=O)c1ccccc1S2(=O)=O 2.54%
O=C(NCCc1ccccc1)C1CCN(Cc2cc3ccccc3n2Cc2cccc(Cl)c2)CC1 -4.23%
COc1ccc(CNC(=O)c2cc(=O)[nH]c3ccc(S(=O)(=O)N4CCCC4)cc23)c(OC)c1 7.58%
CC(=O)c1cccc(NC(=O)C(CC(C)C)NS(=O)(=O)c2ccc3c(c2)CCN3C(C)=O)c1 (stereo not given) 0.293%
Cc1cc(NC(=O)CSc2nc(-c3ccccc3C)nc3c2c(=O)n(C)c(=O)n3C)no1 3.29%
CCOc1cc(C(=O)Nc2cccc3cccnc23)cc(OCC)c1OCC 1.95%
COc1ccc(Cl)cc1NC(=O)c1ccc2c(c1)CCN2S(C)(=O)=O -6.6%
COc1ccc(-c2cc3nc(C)c(CCC(=O)N4CCN(c5ccc(F)cc5)CC4)c(C)n3n2)c(OC)c1 -18.8%
Cc1ccc(Nc2nc3ccccc3c3nnc(C)n23)c(C)c1 -7.18%
CC(=O)c1cccc(Nc2cc(C)nc3nc(Cc4ccccc4)nn23)c1 2.42%
COc1ccccc1OCC(=O)NC1CC(=O)N(c2ccc3c(c2)OCCO3)C1 (stereo not given) -10.2%
CCCCN(CCCC)CCNC(=O)CN1C(=O)CSc2ccc(S(=O)(=O)N3CCOCC3)cc21 3.1%
CCOC(=O)c1c(C)n(-c2ccccc2)c2ccc(OC(=O)c3cccc(C)c3)cc12 4.56%
COc1cccc(CNC(=O)c2ccc3c(=O)n4nc(Nc5ccccc5)sc4nc3c2)c1 -7.73%
CC(=O)c1cc(-c2ccc(F)cc2)n(CC(=O)NC2CCC(C)CC2)c1C (stereo not given) 4.45%
CC(=O)c1cccc(NC(=O)Nc2nnc(N3CCCC3)s2)c1 -8.43%
Cc1oc2ncn(C)c(=O)c2c1C(=O)NCCCN1CCCCC1C (stereo not given) 0.713%
CCCOc1ccc(CNC(=O)c2ccc(C)c(-n3c(C)nc4cccnc43)c2)cc1 -8.18%
COc1ccc(-n2nc(C(=O)Nc3ccc(Cl)cn3)c3c4ccccc4n(C)c3c2=O)cc1 -13.7%
Cc1cccc(NC(=O)Cn2nc3c4ccccc4n(Cc4ccccc4)cc-3c2=O)c1 -2.93%
O=C(Nc1cccc(C(F)(F)F)c1)N1CC2CCCN2c2ccccc21 (stereo not given) 1.5%
COc1ccc2cc(-c3nnc(Nc4ccccc4)s3)c(=O)oc2c1 -0.105%
Cc1ccccc1C(=O)OCc1cc(=O)n2nc(C(C)C)sc2n1 -10.3%
COc1cc(OC)c(N(C)C(=O)c2cn(C3CCCC3)c(=O)c3c2c2ccccc2n3C)cc1Cl -5.56%
COc1ccc(-n2nc(C(=O)O)c(=O)n(C)c2=O)cc1 -6.12%
Cc1ccc(N2CCN(C(=O)c3cnn(-c4ccc(F)cc4F)c3C3CCN(C(=O)OC(C)(C)C)CC3)CC2)c(C)c1 3.64%
CCN1CCN(C(c2ccc(C)cc2)c2c(O)cc(C)n(Cc3ccco3)c2=O)CC1 (stereo not given) -1.45%
CN(Cc1ccccc1)S(=O)(=O)c1ccc2[nH]c3c(c2c1)CCCCC3 -4.19%
CC1=C(C(=O)Nc2ccc(C)cc2C)C(c2ccc(C(=O)O)cc2)n2nc(SCc3ccccc3)nc2N1 (stereo not given) -1.86%
Cc1ccc2c(c1)c1c(c(=O)n(-c3ccccc3)c(=O)n1CC(=O)c1ccc(F)cc1)n2C -0.791%
Cc1ccc(NC(=O)c2ccc(CN3CC(=O)N4CCCCC4C3=O)cc2)cc1 (stereo not given) -20.5%
CCc1cccc(NC(=O)Cn2c(=O)n(-c3cccc(Cl)c3)c(=O)c3c2c2cc(C)ccc2n3C)c1 9.52%
COc1ccc(OC)c(CNC(=O)c2cnc3c(C)cccn3c2=O)c1 0.0187%
CCc1nn2c(=O)cc(COC(=O)c3ccc(NC(=O)COc4ccc(C)cc4)cc3)nc2s1 14.9%
Cn1c(SCC(=O)N2CCCc3ccccc32)ncc(C(=O)Nc2ccccc2)c1=O -8.65%
CSc1ccc(Cn2nnc(C(=O)Nc3ccc(C)cc3Cl)c2N)cc1 -2.48%
Cc1ccc(C(=O)COC(=O)C(Cc2c[nH]c3ccccc23)NC(=O)c2ccc(C(C)(C)C)cc2)cc1 (stereo not given) -4.72%
CCN(c1ccccc1)S(=O)(=O)c1ccc(-c2cc(C)no2)s1 -7.78%
Cc1cc(C)cc(NC(=O)CSc2nc(=O)n(Cc3ccccn3)c3c2CCC3)c1 -5.61%
CCOC(=O)C(C)Sc1nc(-c2ccccc2Cl)cc(-c2ccccc2)c1C#N (stereo not given) 1.15%
Cc1ccccc1C(=O)Nc1cccc(C(=O)OCc2cc(=O)n3ccsc3n2)c1 1.23%
Cc1ccc2[nH]c(=O)c(CN(C(=O)c3cccc(Cl)c3)C(C)(C)C)cc2c1 -5.44%
COc1ccc(-n2cc(-c3ccccc3)c3c(NC4CCCC4)ncnc32)cc1 11%
Cc1cccc(Oc2nc3c(c(=O)n(C)c(=O)n3C)n2Cc2ccccc2)c1C 4.17%
Cc1cccc(C)c1OCc1cc(=O)n2c3c(sc2n1)CCCC3 -1.02%
Cc1cc(C)cc(NC(=O)Nc2nnc(N(C)C3CCCCC3)s2)c1 -9.45%
COc1ccccc1-c1noc(CCCC(=O)NCc2ccco2)n1 3.1%
COc1ccc(C(=O)Nc2nnc(C(C)C)s2)cc1OC -6.14%
COc1ccc2sc(N(Cc3cccnc3)C(=O)COc3ccccc3)nc2c1 -0.896%
COc1cc(NC(=O)Cn2c(=O)n(CC3CCCO3)c(=O)c3ccccc32)cc(OC)c1 (stereo not given) 0.0393%
CCOc1ccc(CCNc2nc3ccccc3n3c(C)nnc23)cc1OCC -7.67%
CCCCc1nn2c(=O)cc(COC(=O)c3ccc(NC(=O)C(CC)CC)cc3)nc2s1 1.96%
Cc1ccc(NC(=O)c2cc3nc(-c4ccccc4)cc(-c4ccccc4)n3n2)cc1 0.791%
Cc1ccc(CNC(=O)c2cnn(-c3cccc(C)c3)c2C2CCN(C(=O)OC(C)(C)C)CC2)cc1 -17.6%
COc1ccc(CCNC(=O)c2ccc(Cn3c(=O)c4ccccc4n(Cc4cccc(C)c4)c3=O)cc2)cc1OC -0.217%
CCC1CCCCN1S(=O)(=O)c1cc(C(=O)Nc2ccc(C)c(F)c2)ccc1F (stereo not given) -19%
CCOCCCn1c(=N)c(C(=O)NC2CCCC2)cc2c(=O)n3cc(C)ccc3nc21 5.77%
CCn1cnc2c(=O)oc3ccc(S(=O)(=O)Nc4ccc(OC)cc4)cc3c21 17.5%
COc1ccccc1Cc1nc2ccccc2nc1SCC(=O)Nc1cc(Cl)ccc1OC 0.281%
CCc1ccccc1NC(=O)c1nnn(Cc2ccc(Cl)cc2)c1N -12.6%
CCOC(=O)c1c(S(=O)(=O)N2CCC(C(=O)Nc3ccc(C)cc3C)CC2)c(C)n(C)c1C -0.475%
Cc1cc(C)cc(NC(=O)c2cnc3sc(N4CCCC4)nn3c2=O)c1 0.435%
COCCNC(=O)CSc1nc(-c2ccccc2)[nH]c1-c1ccc(OC)cc1 -7.72%
Cc1cc(CN2CCN(c3cccc(C)c3C)CC2)cs1 0%
CCOc1ccc(NC(=O)C2CCCN(S(=O)(=O)c3c(C)noc3/C=C/N(C)C)C2)cc1 (stereo not given) -25.4%
CCOC(=O)C1=C(CN2CCN(c3ccc(OC)cc3)CC2)NC(=O)NC1c1ccc(Cl)cc1 (stereo not given) 7.11%
COc1cccc(-n2c(SCC(=O)Nc3nnc(C)s3)nc3c([nH]c4ccccc43)c2=O)c1 0.519%
Fc1ccc2[nH]c(-c3cccs3)cc2c1 3.02%
CC(C)Cn1c(=O)c2sccc2n2c(CCCC(=O)N3CCN(c4ccc(F)cc4)CC3)nnc12 -3.32%
O=C(Nc1cccc(C(F)(F)F)c1)c1cc2nc(-c3ccc4c(c3)OCO4)cc(C(F)(F)F)n2n1 -2.73%
Cc1ccc(Cn2cc(C(=O)c3ccc4c(c3)OCO4)c(=O)c3cc(C)ccc32)cc1 -7.74%
COc1ccc(C)cc1NC(=O)N1CC(C)Sc2ccccc21 (stereo not given) -0.264%
Cc1ccc(-c2nc(CSc3nncn4c3cc3occc34)c(C)o2)cc1 -0.651%
NCCc1nc2cccnc2n1-c1ccccc1 0%
Cc1ccc(C)c(NC(=O)Cn2c(=O)n(-c3ccc(CC(=O)NCC4CCCO4)cc3)c(=O)c3ccccc32)c1 (stereo not given) -1.39%
Cc1ccc(OCC(=O)NCC2(N(C)C)CCCCC2)cc1C -6.34%
CCCOc1ccc(C(=O)NCC2OCCc3ccccc32)cc1 (stereo not given) -0.494%
Cc1ccc(NC(=O)c2c(C)nc3sc(C(=O)Nc4ccc(F)cc4)c(N)c3c2-c2ccc(C)o2)c(C)c1 -0.286%
CC1CN(C(=O)CCC(=O)Nc2cc(F)ccc2F)c2ccccc2S1 (stereo not given) -5.02%
COc1ccc(C(=O)Nc2ccc3oc(-c4ccc(F)cc4Cl)nc3c2)cc1 -1.06%
COc1ccc(-n2c(SCC(=O)N3CCc4ccccc43)nc3c([nH]c4ccccc43)c2=O)cc1 3.66%
CCOC(=O)C1CCCN(C(=O)Cn2ncc3c(C)n(Cc4ccccc4Cl)c(C)c3c2=O)C1 (stereo not given) -12.8%
CCc1ccc(CNC(=O)c2cc3ccccn3n2)cc1 -2.52%
CCCc1nc2ccccc2n1CC(O)COc1ccc(C(=O)OC)cc1 (stereo not given) 13.6%
CCC1CCCCN1S(=O)(=O)c1ccc(C(=O)Nc2sc3c(c2C(N)=O)CCC3)cc1 (stereo not given) 0.203%
O=C(CSc1nnc(-c2ccccc2F)o1)Nc1cccc(C(F)(F)F)c1 0.154%
O=C(Nc1ccc(Cl)cc1F)c1cnc2sc(N3CCOCC3)nn2c1=O -11.7%
COc1ccc(C2C(C(=O)Nc3ccc(Cl)cc3)=C(C)Nc3nc(SCc4cccc(C)c4)nn32)cc1OC (stereo not given) -2.72%
COCCCN1C(=O)c2ccccc2CC1(C)C(=O)NC1CCCCC1 (stereo not given) -8.82%
